# Measured values published in PubChem BioAssay AID1347073 (National Center for Advancing Translational Sciences (NCATS), 2019).
# Screen size: about 45,000 compounds; about 200 (0.44%) were called active. Roughly 7% stayed inconclusive and do not appear here. The call rests on the fitted dose curve; in most records, active means well fitted activation curve with a large enough effect; inconclusive means small, poorly fitted or top-dose-only effect; inactive means no such curve, though single readings can be large or run the other way. The list shows a part of the results.
# Test: qHTS of TDP-43 Inhibitors: NCGC Sytravon Library Screen; further: 0% is about no effect; nearly all actives have a fitted effect of over 55% in size
# Details: yeast TDP-43 toxicity rescue, BacTiter-Glo growth, 24 h; series mostly up to 46.1 µM; growth rescue (activation): at the top concentration
# Method in brief: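 TDP-43-expressing yeast, pregrown in raffinose, seeded at OD600 0.02 in galactose medium with compound for 24 hr at 30 deg C. Growth read by BacTiter-Glo luminescence, so rescue of toxicity appears as activation.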
row,SMILES,growth rescue (activation)
1,CN(C)/C=C(/C(=O)c1ccc(F)cc1)S(=O)(=O)c1ccc(F)cc1,inactive: 11.1%
2,Cc1ccc(NC(=O)CCS(=O)(=O)c2cccc3nonc23)cc1Cl,inactive: -6.97%
3,O=C(O)/C=C/c1cn(-c2ccccc2)nc1-c1cc2ccccc2o1,inactive: -18.3%
4,C=CCn1c(C(C)(C)C)nc2ccccc21,inactive: 3%
5,O=C(Nc1nn[nH]n1)c1ccc(S(=O)(=O)N2CCCCC2)cc1,inactive: 11.2%
6,COc1cccc(-c2cnc3cccnn23)c1,inactive: 29.2%
7,CCNC(=O)N1CCCC(C(=O)c2ccc(OC)c(OC)c2)C1 (stereo not given),inactive: 1.65%
8,CCc1nc2c(OCc3ccc(F)cc3)cccn2c1N(C)C(=O)c1ccncc1,inactive: 16.2%
9,N#Cc1nc(-c2ccc(OCc3ccccc3)cc2)oc1N1CCC(C(N)=O)CC1,inactive: 16.7%
10,COCCN(C(=O)c1csnn1)C(C(=O)NC1CCCC1)c1ccccc1 (stereo not given),inactive: -7.83%
11,COc1ccc(C(=O)N2c3ccccc3C(C)(c3ccc(Cl)cc3)CC2(C)C)cc1 (stereo not given),inactive: 4.02%
12,CCOC(=O)/C(C#N)=C/c1c(N2CCN(Cc3ccc4c(c3)OCO4)CC2)nc2c(C)cccn2c1=O,inactive: -10.1%
13,O=C(Nc1nc2ccc(F)cc2s1)Oc1ccccc1,inactive: -15.8%
14,c1ccc(CNc2nc(NCc3cccs3)nc3ccsc23)cc1,inactive: 4.57%
15,Cc1occc1-c1nnc(SCC(=O)N2CCCc3ccccc32)n1Cc1ccco1,inactive: 24.9%
16,Cc1c(Cl)cccc1NC(=O)CCC(=O)NNC(=O)c1ccccc1,inactive: 7.32%
17,COc1ccc(NC2CCCN(C(=O)CCC(=O)c3ccc(F)cc3)C2)cc1 (stereo not given),inactive: 2.55%
18,CCOCCCNC(=O)CCc1nnc2n(CCC(C)C)c(=O)c3ccccc3n12,inactive: -0.496%
19,COc1ccc(C(=O)Nc2cc(Cl)ccc2N2CCOCC2)cc1S(=O)(=O)N1CCOCC1,inactive: 2.18%
20,Cc1cc(C)n(-c2cccc(CN3CCC(CO)(Cc4ccccc4)CC3)c2)n1,inactive: 0.166%
21,COc1cccc(CC2(CO)CCN(Cc3cnc(N4CCOCC4)s3)CC2)c1,inactive: 3.48%
22,O=C(CSc1nc2nc(-c3cccs3)cc(C(F)(F)F)c2c(=O)[nH]1)NCc1ccco1,inactive: 5.25%
23,Cc1nc2ccc(NC(=O)c3cccc(S(=O)(=O)N4CCOCC4)c3)cc2s1,inactive: 9.06%
24,CCc1cccc(NC(=O)CC2SC(N3CCCC3)=NC2=O)c1 (stereo not given),inactive: 17.7%
25,O=C(CCn1cccc1)NCCc1ccc(Cl)cc1,inactive: 28.6%
26,O=[N+]([O-])c1cc2c(cc1Br)CCN2,inactive: 4.23%
27,C/C(=N\Nc1ccc(Cl)nn1)c1ccccc1O,inactive: -2.7%
28,CN(Cc1c(C(=O)N2CCc3ccccc3C2)nc2ccc(Cl)cn12)C(C1CC1)C1CC1,inactive: 4.65%
29,O=C(COC(=O)c1cccnc1Cl)NC(=O)NC1CCCCC1,inactive: -3.29%
30,O=C(Cn1c(=O)oc2ccccc21)Nc1ccc(C(=O)O)cc1,inactive: 7.13%
